# Source: the RNAGym collection of RNA variant scans (doi:10.1093/nar/gkz1192)
# The source gives no read counts; variants with many changes may rest on few reads.
# B1: CPEB3 Ribozyme (parent)
# chain: UAACAGGGGGCCACAGCAGAAGCGUUCACGUCGCAGCCCCUGUCAGAUUCUGGUGAAUCUGCGAAUUCUGCUGUAUAUCUC
# Variants of: B1
# Test: self-cleavage, relative activity (ratio to wild type); higher = more cleavage; in vitro, sequencing
# Procedure, shortened: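 Relative activity compares each variant's cleaved/total read fraction with that of the unmutated ribozyme. To get these fractions, barcoded CPEB3 ribozyme libraries from rounds of error-prone PCR were transcribed with T7 RNA polymerase for 5 hours at 37°C and then given 15 min of DNase I treatment before EDTA was added. The RNAs were reverse transcribed with template switching and sequenced on Illumina, and DNA sequencing linked barcodes to variants. A minimum of 5 reads applied, and three batches were averaged.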
row,Variant,self-cleavage
1,UAACAGGGGGCCACGGCAGAAGGGCUCACGUCGCAGCCCCUGUCAGAUUCCGGUGAAUCUGCGAAUUCUGCUGUAUAUCCC [A15G C23G U25C U51C U80C],0.42
2,UAACAGGGGGCCACGGCAGAAGUGUUCACGUCACAGCCCCUGUCAGAUCGUGGUGAAUCUGCACAUUCUGCUGUAUAUCUC [A15G C23U G33A U49C C50G G63A A64C],0.08
3,UAACAGGGGGCCACGGCAGAAGCGUUUACGUCGCGGCCCCUGUCAGAUUCUGGCGAAUCUGCGAAUACUGCUAUAUAUCUC [A15G C27U A35G U54C U67A G73A],0.09
4,UAACAGGGGGCCACGGCAGAAGCGUUCAAGUCGCAGCCCCUGUCAGAUUCUGGUGAAUCUGCGAAUUCUGCCGUAUAUCUC [A15G C29A U72C],0.46
5,UAACAGGGGGCCACGGCAGAAGCGUUCAGGUCGCUGCCACUGUCGGAUUCUGGUGAAUCUGCGAAUUCUGCUGUAUUUCUC [A15G C29G A35U C39A A45G A77U],0.04
6,UAACAGGGGGCCACGGCAGAAGCGUUCAGGCGGAAGCCCCUGUCAGAUUCUGGUGAAUCUGCGAAUUCUGCUGUAUAUCUC [A15G C29G U31C C32G C34A],0.29
7,UAACAGGGGGCCACGGCAGAAGCGUUCAUGUCGCAGCCCCUGUCAGAUUCUGGUGAAUCUGCGAAUUCUGCUGUUUAUCUC [A15G C29U A75U],0.29
8,UAACAGGGGGCCACGGCAGAAGCGUUCAUGUCGCAGCCCCUGUCAGAUUCUGGUGAAUCUGCGAAUUCUGUUGUAUAUCUC [A15G C29U C71U],0.1
9,UAACAGGGGGCCACGGCAGAAGCGUUCAUGCCGCAGCCCCUGUCAGAUUCUGGUGAAUCUGCGAAUUCUGCUGUAUAUCUC [A15G C29U U31C],0.22
10,UAACAGGGGGCCACGGCAGAAGCGUUCAUGCCGCAGCCCCUGUCAGAUUCUGGUUAAUCUUCGAAUUCUGCUGUAUAUCUC [A15G C29U U31C G55U G61U],0.16
11,UAACAGGGGGCCACGGCAGAAGCGUUCAUGUCGCAGCCCCAGUCAGAUUCUGGUGAGUCUGCGAAUUCUGCUGUAUAUCUC [A15G C29U U41A A57G],0.07
12,UAACAGGGGGCCACGGCAGAAGCGUUCACGUAGCAGCCCCUGUCAGAUUCAGGUGAAUCUGCGAAUUCUGCUGUAUAUCUC [A15G C32A U51A],0.33
13,UAACAGGGGGCCACGGCAGAAGCGUUCACGUGGCAGCCCCUGUCAGGUUCUGGUGAAUCUGCGAAUUCUGCUGUAUAUCUC [A15G C32G A47G],0.15
14,UAACAGGGGGCCACGGCAGAAGCGUUCACGUCGUAGCCCCAGUCAGAUUCUGGUGAAUCUGCGAAUUCCGCUGUAUAUCUC [A15G C34U U41A U69C],0.15
15,UAACAGGGGGCCACGGCAGAAGCGUUCACGUCGCAGUCACUGUCAGCUCCUGGUGAAUCUGCGAAUUCUGCUGCAUAUCAC [A15G C37U C39A A47C U49C U74C U80A],0.03
16,UAACAGGGGGCCACGGCAGAAGCGUUCACGUCGCAGUCCCUGUCAGAUUCAGGUGAAUCUGCGAAUUCCGCUGUAUAUCUC [A15G C37U U51A U69C],0.1
17,UAACAGGGGGCCACGGCAGAAGCGUUCACGUCGCAGCUCCUGCCAGAUUCUGGUGAAUCUGCGAAUACUGCUGUAUAUCUC [A15G C38U U43C U67A],0.12

row,Variant,self-cleavage
1,UAACAGGGGGCCACGGCAGAAGCGUUCACGUCGCAGCCACUGUCAGAUCCUGGUGAAUCUGCGAAUUCUGCUGUAAAUCUC [A15G C39A U49C U76A],0.24
2,UAACAGGGGGCCACGGCAGAAGCGUUCACGUCGCAGCCACUGUCAGAUUCUGGUGAAUCUGCGAAUUCUGCCGUAUAUCCC [A15G C39A U72C U80C],0.21
3,UAACAGGGGGCCACGGCAGAAGCGUUCACGUCGCAGCCCAUGUCCGAAUCUGGUGAAUCUGCGAAUUCUGCUGUAUAUCUC [A15G C40A A45C U48A],0.24
4,UAACAGGGGGCCACGGCAGAAGCGUUCACGUCGCAGCCCAUGUCAGUUUCUGGUGGAUCUGCGAAUUCUGCUGUGUAUCUC [A15G C40A A47U A56G A75G],0.05
5,UAACAGGGGGCCACGGCAGAAGCGUUCACGUCGCAGCCCAUGUCAGAUUCUGGUGAAUCUGCGAAUUCUGCUGUAUGUCUC [A15G C40A A77G],0.26
6,UAACAGGGGGCCACGGCAGAAGCGUUCACGUCGCAGCCCUUGUCAGAUUCUGGUGAAUCUGCGAAUUCUGCUGUAUAACUC [A15G C40U U78A],0.64
7,UAACAGGGGGCCACGGCAGAAGCGUUCACGUCGCAGCCCCUGUAGGAUUCUGGUGAAUCUGCGAAUUCUGCUGUAUACCUC [A15G C44A A45G U78C],0.16
8,UAACAGGGGGCCACGGCAGAAGCGUUCACGUCGCAGCCCCUGUCAGAUUAUGGUGAAUCUGCGAAUUCUGCUGUAUGUCUC [A15G C50A A77G],0.99
9,UAACAGGGGGCCACGGCAGAAGCGUUCACGUCGCAGCCCCUGUCAGAUUCUGGUGAAUAUGCGAAUUCUGCUUUAUAUCUC [A15G C59A G73U],0.14
10,UAACAGGGGGCCACGGCAGAAGCGUUCACGUCGCAGCCCCUGUCAGAUUCUGGUGAAUCUGUGAACUCUGCUGUACAUCUC [A15G C62U U66C U76C],0.3
11,UAACAGGGGGCCACGGCAGAAGCGUUCACGUCGCAGCCCCUGUCAGAUUCUGGUGAAUCUGCGAAUUAUGCUGUAUACCUC [A15G C68A U78C],0.19
12,UAACAGGGGGCCACGACAGAAGCGUUCACGUCGCAGCCCCUGUCCGAUUCUGGUGAAUCUGCGAAUUCUGCUGUAUAUCUC [A15G G16A A45C],0.26
13,UAACAGGGGGCCACGCCAGAAGCGUUCACGUCGCAGCCCCUGUCAGAUUCUGGUGAAUCUGCGAAUUCUGCUGUAUGUCUC [A15G G16C A77G],0.14
14,UAACAGGGGGCCACGGCAAAAGCGUUCACGUCGCUGCCCCUGUCAGAUUCUGGUGGAUCUGCGAAUUCUGCAGUAUACCCC [A15G G19A A35U A56G U72A U78C U80C],0.04
15,UAACAGGGGGCCACGGCACAAGCGCUCACGCCACAGCCCCUGUCAGAUUCUGGUGAAUCUGCGAAUACUGCUGUAUAUCUC [A15G G19C U25C U31C G33A U67A],0.04
16,UAACAGGGGGCCACGGCAUGAGCGUUCACGUCGCAGCCCCAGUCAGAUUCUGGUGAAUCUGCGAAUUCUGCUGUAUAUCUC [A15G G19U A20G U41A],0.08
17,UAACAGGGGGCCACGGCAUAAGCGUUCACGUCGCAGACCCCGUCAGAUUCUGGUGAAUCUGCAAAUUCUGCUGUAUAUCUC [A15G G19U C37A U41C G63A],0.17
